Data from PubChem BioAssay AID652104 (National Center for Advancing Translational Sciences (NCATS), 2013).
Hit rate of the full screen: of about 410,000 compounds, about 7,200 (1.8%) were called active. The inconclusive results got no clear call from the source; some entries with a clear call stand among them for comparison. Calls come from the whole dose curve; as a rule, active = well fitted activation curve with a large enough effect; inconclusive = small, poorly fitted or top-dose-only effect, or another doubt; inactive = no such curve, though single readings can be large or run the other way. Where the call is inconclusive, the potency comes from a doubtful curve fit.

test: qHTS of TDP-43 Inhibitors; details: TDP-43 expressing yeast growth rescue, BacTiter-Glo, 24 h; growth rescue (activation): at 46.1 µM (top of the series) unless noted; note: nearly all actives have a fitted effect of over 50% in size; for growth rescue (activation): % of control where 0% means no effect
Method in brief: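 Yeast expressing TDP-43 (pregrown in raffinose, seeded at OD600=0.02 in galactose medium) exposed to compounds 24 hr at 30 deg C. Growth read by BacTiter-Glo luminescence; rescue of toxicity appears as increased signal.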
Potency is the fitted concentration of half-maximal effect; tags give direction and shape of the fitted curve.

Potency, inconclusive:
C[C@@]12C(=O)Nc3cc(F)ccc3C(=O)N1[C@H]1c3ccccc3OC[C@@H]1[C@@H]2c1ccccc1 22.4 µM [activator, partial curve]
CN(Cc1ccccc1)C(=O)c1ncn2c1C(=O)N(C)CC2 2.82 µM [activator, single point]
CC(C)OC(=O)c1ccc2ccc(-c3ccccc3)nc2c1 2.51 µM [activator, full curve]
CC1CCCC1/C(=N/O)c1ccccc1 (stereo not drawn) 8.91 µM [activator, partial curve]
CCCn1c(C)nc2cc(Cl)c(N3CCN(c4nc(-c5ccc(C)cc5)cs4)CC3)cc21 35.5 µM [activator, single point]
CCOC(=O)CN(C)C(=O)CCc1nnc(-c2ccc(-c3ccccc3)cc2)o1 22.4 µM [activator, single point]
Cc1ccc(C(=S)N2CCCCCC2)cc1 3.16 µM [activator, single point]
CCCOc1cccc(C(=O)N/N=C/c2coc3ccccc3c2=O)c1 20 µM [activator, single point]
CCc1ccc(NC(=O)N(C2CCCCC2)C(C)c2cccnc2)cc1 (stereo not drawn) 20 µM [activator, single point]
O=C(c1ccco1)N1CCN(S(=O)(=O)c2ccc(F)cc2)CC1 7.08 µM [activator, partial curve, poor fit]
Cc1cccc(NCC(=O)NNC(=S)Nc2ccccc2)c1 15.8 µM [activator, partial curve]
Cc1cc(C(=O)OCC(=O)NC2CCCC(C)C2C)c(C)o1 (stereo not drawn) 17.8 µM [activator, partial curve]
CCCOC(=O)CSC1=C(C#N)C(c2ccccc2Cl)CC(=O)N1 (stereo not drawn) 3.55 µM [activator, partial curve]
COc1ccc(CCNC(=O)CSCc2ccc(Cl)cc2)cc1OC 17.8 µM [activator, single point]
Cc1cc(C)n(-c2nc3ccccc3nc2N2CCC(C)CC2)n1 15.8 µM [activator, single point]
Cc1cc(NC(=O)CSc2ccc3ccccc3c2)no1 12.6 µM [activator, partial curve]
N/C(=N\OC(=O)c1csnn1)c1ccc(C(F)(F)F)cc1 14.1 µM [activator, partial curve]
Fc1cccc(Cc2c(-c3cccc(Cl)c3)nc3ccc(Br)cn23)c1 35.5 µM [activator, single point]
COc1ccccc1OCC(=O)NCCSCc1ccc(Cl)cc1 10 µM [activator, partial curve, poor fit]
CCOc1ccc(C(=O)CN2C(=O)NC3(CCCc4ccccc43)C2=O)cc1 (stereo not drawn) 12.6 µM [activator, partial curve]
O=C(COC(=O)CCN1C(=O)C2CC=CCC2C1=O)Nc1ccc(Cl)cc1F (stereo not drawn) 1.26 µM [activator, full curve, poor fit]
Cc1ccc(CNC(=O)c2coc(=O)c3ccccc23)o1 3.55 µM [activator, full curve]
COc1ccc2c(c1OC)C(=O)N1C2SC(C)(C)[C@H]1C(=O)NC1CC1 (stereo partly drawn) 0.501 µM [activator, full curve, poor fit]
COc1cccc(-c2cc3nc4c(c(N5CCC6(CC5)OCCO6)n3n2)CCC4)c1 8.91 µM [activator, partial curve]
CSc1nsc(SCC(=O)Nc2ccc3c(c2)OCCO3)n1 20 µM [activator, partial curve]
c1ccc(-c2csc(N3CCSCC3)n2)cc1 11.2 µM [activator, single point]
Cc1cc(Cl)ccc1OCCCC(=O)OCC(N)=O 14.1 µM [activator, partial curve]
Cc1cccc(N=Nc2cn[nH]c2-c2ccco2)c1 1.58 µM [activator, full curve, poor fit]
O=C(c1ccco1)N1CCN(C(=O)c2ccc(COc3ccc4c(c3)CCC4)o2)CC1 14.1 µM [activator, single point]
COCCCNC(=O)C[C@@H]1C[C@@]2(C(=O)OC)CCCCC=C2N(Cc2ccc(Cl)cc2Cl)C1=O 22.4 µM [activator, partial curve, poor fit]
CCOC(=O)c1cnc(-n2nc(C)cc2C)nc1N1CC(C)OC(C)C1 (stereo not drawn) 11.2 µM [activator, partial curve]
COC(=O)c1cc(-c2cccs2)nc2ccccc12 22.4 µM [activator, single point]
Cc1cc(F)ccc1NS(=O)(=O)c1ccc(-n2cccn2)cc1 31.6 µM [activator, partial curve, poor fit]
Cc1ccc(N(CC(=O)Nc2cccc(F)c2)S(=O)(=O)c2cccs2)cc1 4.47 µM [activator, single point]
Cc1nonc1C1CCCN1C(=O)c1cc(COc2cccc(C(F)(F)F)c2)on1 (stereo not drawn) 22.4 µM [activator, single point]
CC1=C(C(=O)NC2CC(C)(C)Cc3c2cnn3-c2cccc(F)c2)OCCO1 (stereo not drawn) 8.91 µM [activator, partial curve]
O=C(C1CCN(S(=O)(=O)c2cccc3nsnc23)CC1)N1CCc2ccccc21 15.8 µM [activator, single point]
N#Cc1cc2cc3c(cc2nc1Cl)OCCO3 15.8 µM [activator, partial curve]
COc1ccc(COc2cc(-c3cccc(OC)c3)nc3ccc(NC(=O)c4ccc(Cl)cc4)cc23)cc1 10 µM [activator, partial curve]
CCCCC1Cc2[nH][nH]c(=O)c2C(c2ccc(F)cc2)O1 (stereo not drawn) 20 µM [activator, single point]
CCc1ccc(C(=O)CSc2nc3ccccc3c(=O)[nH]2)cc1 3.16 µM [activator, single point]
O=C1OCc2cc(-n3cccc3)ccc21 14.1 µM [activator, single point]
CCCSc1nnc(CSc2nc3ccccc3s2)n1-c1ccccc1 28.2 µM [activator, single point]
CCCNC(=O)C1(C)CCCN(C(=O)c2c(C)noc2C)C1 (stereo not drawn) 0.562 µM [activator, full curve, poor fit]
CCOC(=O)C1CCN(S(=O)(=O)c2ccc3c(c2)CC(C)N3C(=O)C2CCC2)CC1 (stereo not drawn) 35.5 µM [activator, single point]
CCc1ccc(NC(=O)CSc2nccn2-c2ccc(OC)cc2)cc1 3.55 µM [activator, partial curve]
CC1(C(=O)Nc2cccc(Br)c2)Cc2ccccc2C(=O)O1 (stereo not drawn) 12.6 µM [activator, single point]
c1coc(-c2nc3ccccc3nc2-c2ccco2)c1 17.8 µM [activator, single point]

Potency, inactive:
O=C(CCC1N=C2c3ccccc3N=C(SCc3ccccc3Cl)N2C1=O)NCc1cccs1 (stereo not drawn)
O=C(C1CCCCC1)N(Cc1nc2sc3c(c2c(=O)[nH]1)CCCC3)Cc1cccs1
Cc1cc(NC(=O)c2cccc(Cl)c2)ccc1-c1cc2ccccc2oc1=O
Cc1ccccc1CCNC(=O)c1ccc2c(c1)nc1n2CCC(C)C1 (stereo not drawn)
COc1cc2c(cc1OC)C(c1ccc(F)cc1)N(c1cccc(C#N)c1)C(=O)C2 (stereo not drawn)
O=C(Nc1cccc(C(=O)OCc2cc(=O)n3nc(C4CC4)sc3n2)c1)c1cccc(F)c1
COc1ccc(S(=O)(=O)NCC2CCC(C(=O)N3CCC4(CC3)OCCO4)CC2)cc1 (stereo not drawn)
Cc1nc(-c2cccc(NC(=O)Nc3ccc([N+](=O)[O-])cc3)c2)no1
CNC(=O)C1CCC(Cn2c(=O)c3sccc3n(Cc3ccc(F)cc3)c2=O)CC1 (stereo not drawn)

Potency, active:
Cc1csc2ncc(C(=O)NCc3ccc4c(c3)OCO4)c(=O)n12 10 µM
COc1ccc(C(O)c2nc(-c3cccs3)cs2)cc1 (stereo not drawn) 15.8 µM
Cc1ccc(N2C(=O)C(Cl)=C(N3CCOCC3)C2=O)c(C)c1 20 µM
CC(C)(C)c1ccc(C(=O)N2CCC2(C)C(=O)Nc2cccc3ncccc23)cc1 (stereo not drawn) 25.1 µM
Cc1cccc(Nc2ncnc3onc(-c4ccc(F)cc4)c23)c1C 14.1 µM
COc1ccc(C(C)(O)c2nc(-c3ccccc3)cs2)cc1 (stereo not drawn) 8.91 µM
COc1ccc(/C=C/C(=O)OCC(=O)NCCCc2ccccc2)cc1OC 35.5 µM
CC(Sc1nnc(NC2CCCCC2)s1)C(=O)Nc1ccc2c(c1)C(=O)c1ccccc1C2=O (stereo not drawn) 35.5 µM
N/C(Cc1ccc([N+](=O)[O-])cc1)=N\OC(=O)c1ccc([N+](=O)[O-])cc1 17.8 µM

Growth rescue (activation), inconclusive:
Cc1ccc(S(=O)(=O)c2ccc([N+](=O)[O-])o2)cc1 -93.8% [activator]
CCCc1nc2c(=O)n(C)c(=O)nc-2n(C)n1 -84.1% [activator]
